Some of the results follow.
Assays:
Test in all cases: glycan array binding signal (z-score within array); higher = stronger binding
Conditions in all cases: glycan notation: IUPAC condensed, linker removed
[1] = target: Neu5Ac(a2-3)Gal(b1-4)[Fuc(a1-3)]GlcNAc
How it was run: (§1)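 Arrays were curated from the Consortium for Functional Glycomics database, 3228 in total, and kept only where the protein sequence was available. Binding is expressed as a within-array Z-score. This score was averaged across arrays of the same protein sequence at different concentrations or buffers and across linkers, and negative values can be read as non-binding.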

[2] = target: Neu5Ac(a2-3)Gal(b1-4)[Fuc(a1-3)]GlcNAc(b1-3)Gal
How it was run: as §1

[3] = target: Neu5Ac(a2-3)Gal(b1-4)[Fuc(a1-3)]GlcNAc(b1-3)Gal(b1-4)GlcNAc
How it was run: as §1

[4] = target: Neu5Ac(a2-3)Gal(b1-4)[Fuc(a1-3)]GlcNAc(b1-3)Gal(b1-4)[Fuc(a1-3)]GlcNAc(b1-3)Gal(b1-4)[Fuc(a1-3)]GlcNAc
How it was run: as §1

[5] = target: Neu5Ac(a2-3)Gal(b1-4)[Fuc(a1-3)]GlcNAc(b1-6)[Gal(b1-3)]GalNAc
How it was run: as §1

[6] = target: Neu5Ac(a2-3)Gal(b1-4)[Fuc(a1-3)]GlcNAc6S
How it was run: as §1

[7] = target: Neu5Ac(a2-3)Gal6S(b1-4)GlcNAc
How it was run: as §1

[8] = target: Neu5Ac(a2-3)Gal6S(b1-4)[Fuc(a1-3)]GlcNAc
How it was run: as §1

Neu5Ac(a2-3)GalNAc = target: Neu5Ac(a2-3)GalNAc
How it was run: as §1

[9] = target: Neu5Ac(a2-3)GalNAc(b1-4)GlcNAc
How it was run: as §1

[10] = target: Neu5Ac(a2-3)[GalNAc(b1-4)]Gal(b1-4)Glc
How it was run: as §1

[11] = target: Neu5Ac(a2-3)[GalNAc(b1-4)]Gal(b1-4)GlcNAc
How it was run: as §1

[12] = target: Neu5Ac(a2-3)[Neu5Ac(a2-6)]GalNAc
How it was run: as §1

Neu5Ac(a2-6)Gal = target: Neu5Ac(a2-6)Gal
How it was run: as §1

Neu5Ac(a2-6)Gal(b1-4)Glc = target: Neu5Ac(a2-6)Gal(b1-4)Glc
How it was run: as §1

[13] = target: Neu5Ac(a2-6)Gal(b1-4)GlcNAc
How it was run: as §1

[14] = target: Neu5Ac(a2-6)Gal(b1-4)GlcNAc(b1-2)Man(a1-3)[Gal(b1-4)GlcNAc(b1-2)Man(a1-6)]Man(b1-4)GlcNAc(b1-4)GlcNAc
How it was run: as §1

[15] = target: Neu5Ac(a2-6)Gal(b1-4)GlcNAc(b1-2)Man(a1-3)[GlcNAc(b1-2)Man(a1-6)]Man(b1-4)GlcNAc(b1-4)GlcNAc
How it was run: as §1

[16] = target: Neu5Ac(a2-6)Gal(b1-4)GlcNAc(b1-2)Man(a1-3)[GlcNAc(b1-2)Man(b1-4)GlcNAc(b1-2)Man(a1-6)]Man(b1-4)GlcNAc(b1-4)GlcNAc
How it was run: as §1

[17] = target: Neu5Ac(a2-6)Gal(b1-4)GlcNAc(b1-2)Man(a1-3)[Neu5Ac(a2-6)Gal(b1-4)GlcNAc(b1-2)Man(a1-6)]Man(b1-4)GlcNAc(b1-4)GlcNAc
How it was run: as §1

[18] = target: Neu5Ac(a2-6)Gal(b1-4)GlcNAc(b1-2)Man(a1-6)[Gal(b1-4)GlcNAc(b1-2)Man(a1-3)]Man(b1-4)GlcNAc(b1-4)GlcNAc
How it was run: as §1

[19] = target: Neu5Ac(a2-6)Gal(b1-4)GlcNAc(b1-2)Man(a1-6)[GlcNAc(b1-2)Man(a1-3)]Man(b1-4)GlcNAc(b1-4)GlcNAc
How it was run: as §1

[20] = target: Neu5Ac(a2-6)Gal(b1-4)GlcNAc(b1-3)Gal(b1-4)GlcNAc
How it was run: as §1

[21] = target: Neu5Ac(a2-6)Gal(b1-4)GlcNAc(b1-3)Gal(b1-4)[Fuc(a1-3)]GlcNAc(b1-3)Gal(b1-4)[Fuc(a1-3)]GlcNAc
How it was run: as §1

[22] = target: Neu5Ac(a2-6)Gal(b1-4)GlcNAc6S
How it was run: as §1

Neu5Ac(a2-6)GalNAc = target: Neu5Ac(a2-6)GalNAc
How it was run: as §1

[23] = target: Neu5Ac(a2-6)GalNAc(b1-4)GlcNAc
How it was run: as §1

Neu5Ac(a2-8)Neu5Ac = target: Neu5Ac(a2-8)Neu5Ac
How it was run: as §1

[24] = target: Neu5Ac(a2-8)Neu5Ac(a2-3)Gal(b1-4)Glc
How it was run: as §1

[25] = target: Neu5Ac(a2-8)Neu5Ac(a2-3)[GalNAc(b1-4)]Gal(b1-4)Glc
How it was run: as §1

[26] = target: Neu5Ac(a2-8)Neu5Ac(a2-8)Neu5Ac
How it was run: as §1

[27] = target: Neu5Ac(a2-8)Neu5Ac(a2-8)Neu5Ac(a2-3)Gal(b1-4)Glc
How it was run: as §1

[28] = target: Neu5Ac(a2-8)Neu5Ac(a2-8)Neu5Ac(a2-3)[GalNAc(b1-4)]Gal(b1-4)Glc
How it was run: as §1

[29] = target: Neu5Ac(a2-8)Neu5Ac(a2-8)Neu5Ac(a2-8)Neu5Ac(a2-3)[GalNAc(b1-4)]Gal(b1-4)Glc
How it was run: as §1

[30] = target: Neu5Ac(b2-6)Gal(b1-4)GlcNAc
How it was run: as §1

Neu5Ac(b2-6)GalNAc = target: Neu5Ac(b2-6)GalNAc
How it was run: as §1

[31] = target: Neu5Ac9Ac(a2-6)Gal(b1-4)GlcNAc
How it was run: as §1

[32] = target: Neu5Gc(a2-3)Gal(b1-3)GlcNAc
How it was run: as §1

[33] = target: Neu5Gc(a2-3)Gal(b1-3)[Fuc(a1-4)]GlcNAc
How it was run: as §1

Neu5Gc(a2-3)Gal(b1-4)Glc = target: Neu5Gc(a2-3)Gal(b1-4)Glc
How it was run: as §1

[34] = target: Neu5Gc(a2-3)Gal(b1-4)GlcNAc
How it was run: as §1

[35] = target: Neu5Gc(a2-3)Gal(b1-4)[Fuc(a1-3)]GlcNAc
How it was run: as §1

[36] = target: Neu5Gc(a2-6)Gal(b1-4)GlcNAc
How it was run: as §1

Neu5Gc(a2-6)GalNAc = target: Neu5Gc(a2-6)GalNAc
How it was run: as §1

[37] = target: Neu5Gc(b2-6)Gal(b1-4)GlcNAc
How it was run: as §1

B1: GH98CBM (Clostridium perfringens) (protein)
chain: EVYALEESRDVYLSDLDWLNATHGDDTKSKIVQKNHPFTPGNNNQSTKISLKMEDGSISEFEKGLGTIAGSPSTITYDISGAGVTKFFSYLGIDRSANPINEQYAKVDKIEVVVDGKVIYSTINQFPNGLTYETPAIKVDLNIPENAKRLQLKSYAGEKTWGDEVVYADAKFTAKGDFVN
- glycan array binding signal (z-score) [1]: -0.026
- glycan array binding signal (z-score) [2]: -0.211
- glycan array binding signal (z-score) [3]: -0.1
- glycan array binding signal (z-score) [4]: -0.233
- glycan array binding signal (z-score) [5]: 0.065
- glycan array binding signal (z-score) [6]: -0.317
- glycan array binding signal (z-score) [7]: 0.358
- glycan array binding signal (z-score) [8]: 0.036
- glycan array binding signal (z-score) (Neu5Ac(a2-3)GalNAc): -0.243
- glycan array binding signal (z-score) [9]: -0.304
- glycan array binding signal (z-score) [10]: -0.198
- glycan array binding signal (z-score) [11]: -0.196
- glycan array binding signal (z-score) [12]: -0.287
- glycan array binding signal (z-score) (Neu5Ac(a2-6)Gal): -0.26
- glycan array binding signal (z-score) (Neu5Ac(a2-6)Gal(b1-4)Glc): -0.277
- glycan array binding signal (z-score) [13]: -0.119
- glycan array binding signal (z-score) [14]: 0.856
- glycan array binding signal (z-score) [15]: -0.091
- glycan array binding signal (z-score) [16]: -0.279
- glycan array binding signal (z-score) [17]: -0.161
- glycan array binding signal (z-score) [18]: -0.008
- glycan array binding signal (z-score) [19]: -0.278
- glycan array binding signal (z-score) [20]: -0.243
- glycan array binding signal (z-score) [21]: -0.092
- glycan array binding signal (z-score) [22]: -0.246
- glycan array binding signal (z-score) (Neu5Ac(a2-6)GalNAc): -0.183
- glycan array binding signal (z-score) [23]: -0.167
- glycan array binding signal (z-score) (Neu5Ac(a2-8)Neu5Ac): -0.202
- glycan array binding signal (z-score) [24]: -0.274
- glycan array binding signal (z-score) [25]: 0.325
- glycan array binding signal (z-score) [26]: -0.247
- glycan array binding signal (z-score) [27]: -0.225
- glycan array binding signal (z-score) [28]: 0.044
- glycan array binding signal (z-score) [29]: -0.273
- glycan array binding signal (z-score) [30]: -0.176
- glycan array binding signal (z-score) (Neu5Ac(b2-6)GalNAc): -0.152
- glycan array binding signal (z-score) [31]: -0.332
- glycan array binding signal (z-score) [32]: -0.257
- glycan array binding signal (z-score) [33]: -0.039
- glycan array binding signal (z-score) (Neu5Gc(a2-3)Gal(b1-4)Glc): -0.107
- glycan array binding signal (z-score) [34]: -0.273
- glycan array binding signal (z-score) [35]: -0.044
- glycan array binding signal (z-score) [36]: -0.286
- glycan array binding signal (z-score) (Neu5Gc(a2-6)GalNAc): -0.181
- glycan array binding signal (z-score) [37]: -0.239

— the supplement of paper PMC8728848
